Laboratory results as given in the supplement of paper PMC11417369.
The other results are listed elsewhere or left out.

System: PfAP2-HC AP2 domain (GST-tagged)
Assay: gcPBM binding intensity (ln(normalized median fluorescence intensity)); higher = stronger DNA binding
Procedure, shortened: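 The binding buffer was 1× PBS containing 1% milk, 0.2 mg/ml BSA, 0.5% salmon testes DNA and 0.03% Triton X-100. In it, GST-tagged P. falciparum DNA-binding domains expressed in E. coli were applied for 1 h to an Agilent 4 × 180k array of primer-extended double-stranded 36-bp intergenic genomic probes plus negative controls. Binding intensity, read with Alexa488 anti-GST antibody and a 488 nm scan, is the highest Masliner-normalised natural-log median intensity across replicate spots of either probe orientation.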

Sequence | gcPBM binding intensity (ln)
TTAAAATAAAGAAAATGTACATAAATAAAAATAAAG [XGTACX_site2280] | 9.83
TTTTACCTAAATATCACACATATTTAAATATATATA [CACACA_site5597] | 9.57
TTGTAATAAAGAATTAAAAAAAAATATATACAGGTA [GTGCAC_negctrl_site150] | 9.6
AATATATTTTTTGGTTGTACAGAGATCTTTGTAGAA [XGTACX_site1707] | 9.51
TATAATAATTATACATGTACACATTATTTGGATAAA [XGTACX_site5552] | 9.6
TTTTTATATTTAATGTGTCCTCACTTAAAAGGATGA [XGTACX_site2744] | 9.25
ATTCTCCAAGTTTGATGTACACATATGACGACGGCG [XGTACX_site4912] | 9.54
AAAAATTATAGAAAAGTGCAATACATGTTACACCAT | 9.68
TACAATAAGGATAAGTGTACATATGTGCATACATAT [XGTACX_site7188] | 9.77
CATATAGCATAATCATGTACACATACAACAAATAGG [XGTACX_site1589] | 10
AAATTGGGGCTTGTTACACACTTAGTGGGAGTTCTA [CACACA_site4485] | 9.71
AAACTTGTAAGAAACACACACACACCCATATATATA [CACACA_site797] | 10.5
TTACGATTATACAAAAGTACATGTATTACACAATAT [XGTACX_site5138] | 9.68
TATACCAGTTTTAAAAGTACTTGTGCATAAAAAATA [XGTACX_site4794] | 9.61
TATATATATATATATACACACTATATAATTCAAACA [CACACA_site4712] | 9.69
ATGAATAAATTAAAAATGCACACTTTGATGGGTACA [CACACA_site2157] | 9.72
AAAATAAAATAAAAGTGTACGTTTTAAGAACATTGA [XGTACX_site2382] | 9.72
AACATGCTCAACTTTTTTTTTTTTTTTTTTTTTTTT [CACACA_negctrl_site1617] | 9.41
GTAAAAATAAAAACTGGTACACAAGTTGTTATAAAA [XGTACX_site502] | 9.76
CTTTTTTGTTAAAGTGTGCGCAATAGTTATAGACTT [GTGCAC_site9670] | 9.7
TATAATCAATATGTAACACACAAAAGTTATATACTT [CACACA_site7368] | 9.8
AATCTTAAAAATATATGTACTAAAAAAAAAAAAAAT [XGTACX_site6195] | 9.5
TAATAATAAAAATAAACACACATATATATGTATATA [CACACA_site2853] | 9.77

Sequence | gcPBM binding intensity (ln)
CACTATATAAGAACCTGTACTCAATTTTGCAATATA [XGTACX_site7238] | 9.58
ATATTTATTTATTTATGTACGCACACAGTTGATATT [XGTACX_site5808] | 10.1
AAATTATATTCAAGTGCATGTAACTTATTATTATAT [TGCATGCA_site526] | 9.67
TATATTTTCCTGCAAACACACATATAAATGTGTAGA [CACACA_site533] | 9.61
TCATATATTTTAATATGTACACATTTTTTTGGTATA [XGTACX_site8695] | 9.58
TACAGACTAAAATACACACACACACGCACATATATA [CACACA_site7875] | 10.7
TTTTTCTTTATTAGCACACATAATATTATATATGTG [CACACA_site2629] | 9.8
TACATTTATATATATACACACACACTAATAAAAAAA [CACACA_site8845] | 10.3
TAAATACAGATATATACACACATATATATATTTTAT [CACACA_site5970] | 9.93
ATATGTATATATAAGGTGCAGAAAGGTGGGCAAAAG | 10
ATAAAAAAGAAACAAACACACATACATACAAACAAA [CACACA_site4256] | 10.3
CTTTTGTCATTCTTTTGTACACAGTTTGAAATATGT [XGTACX_site1457] | 10
AAATAGAGAAATACAAGTACATATCAAACCAATATA [XGTACX_site1192] | 10.2
ATAATAAATAAATAATGTACATATGAAAGAATAAAT [XGTACX_site8355] | 9.95
ATTCTTTTAAAATAGGTGCTAAAAATAATATGTTAC | 9.47
TTCACCAGTTGGTAAACATGCAATTTTCCATACAAG [TGCATGCA_site267] | 9.34
ATATAAATACATAAATGTACTTACCATTTAAATATG [XGTACX_site5254] | 9.74
AAAAAAAACGGACACACACACATACCCATACATACA [CACACA_site5574] | 10.5
ATTATTTGTTTAATGAGTACGAAGACAAATTTTACC [XGTACX_site5223] | 9.54
AAAGGAAAAAAAAGCACACACAATATTACTTGAAAT [CACACA_site2588] | 10.3
TATATACACAGACACACACACACATACACGCACATA [CACACA_site6909] | 10.5
GTACTATACAAAGATGATAATCAATATATATATATA [XGTACX_negctrl_site264] | 9.58
